T1: UNK ZnF1-3 (human, UniProt Q9C0B0 31-174)
T1 sequence: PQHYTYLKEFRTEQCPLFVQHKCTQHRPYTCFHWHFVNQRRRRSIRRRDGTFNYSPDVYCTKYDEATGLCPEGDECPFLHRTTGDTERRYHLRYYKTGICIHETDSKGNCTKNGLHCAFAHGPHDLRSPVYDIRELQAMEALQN

B1: chr5:28717518:28717519:+_ENSMUSG00000048271_ENSMUST00000114884|mus_mus|motif|central (ssRNA)
RNA: GGGAGUUCUACAGUCCGACGAUCAGCAACAGGUGUAGAGGAGCAUCGGUUACCACUCAUCUCCAAAACAUGUGAAGGUGCGGUGGGGAGUUCACGGAGAUUACUGUUCCUGGGAGCAGUGGGUUGCAUCUGCUGCAUGGGCCGCAACAGAGGAUUGAGCAUCA
B2: 25258235_25258355_2025_CDS_ENSG00000155592_ENST00000328086|human|control|control (ssRNA)
RNA: GGGAGUUCUACAGUCCGACGAUCGUUCAACAAAGCAUCCAUGUCCUCAAAGAAGGCGCAGGGUUCUAGCAUGUGGCCAUUUCUCACCUUUCGAUAGCUUUUCUGGAGACUUUUGAACUUGGUUCGACACUGUUCUGGGGUUCUCAACAGAGGAUUGAGCAUCA
B3: chr15:78798593:78798594:+_ENSMUSG00000033088_ENSMUST00000109689|mus_mus|FALSE|FALSE (ssRNA)
RNA: GGGAGUUCUACAGUCCGACGAUCCCCAGGAGGAUCCUGGAAGAAGAGGGAAGGCUCGGGGGCCUGGCGUGGCGGGGAGGAGAAGGAGGGAGCGUCUCUGUGUCCGAUACAUACAGGAGUGGGAAUGUGGGGCGGCUCAUGCAUCAACAGAGGAUUGAGCAUCA
B4: chr1:220276048:220276049:+_ENSG00000067704_ENST00000302637|hu_hu|hu_hu_hu_mus_True|48_108 (ssRNA)
RNA: GGGAGUUCUACAGUCCGACGAUCGCAAACAGCUUCAUUGGCGGGAAUUGUCCAAGGCUGGGUGGUCCAAACUAAAACGCUAACAGGAGAUGAACCAUCUGUAAGAGACUCCAACUUCGGAGGAGGUCUCAGGAGGGGGAAUCUCAACAGAGGAUUGAGCAUCA
B5: chr2:232320318:232320319:-_ENSG00000115053_ENST00000322723|hu_hu|hu_hu_hu_mus_True|48_78 (ssRNA)
RNA: GGGAGUUCUACAGUCCGACGAUCACUAUUAAAGUCUACAAAACCAAACCCUUUGGAGGACCCAGUUUCCCGAUCAGUGACUAUUCUUGCCCGAACGGAGCCCUCAAAUGAUUCUUUUAAGGUCUCUUCAGUGGUAUCCUCAGACAACAGAGGAUUGAGCAUCA
B6: chr5:116376479:116376480:+_ENSMUSG00000029516_ENSMUST00000051704|mus_mus|FALSE|FALSE (ssRNA)
RNA: GGGAGUUCUACAGUCCGACGAUCCUGCUCCAGGAGGGAUCUCUGAGUCUCAGAGGCCUUCAGCUCCACCUCCUUCUGACUAAGCACAGCCUCCACCUCUGACACUCUGCGAUGUAACCGGGUCAUUUCCUGCUCCAUCUUGUGCAACAGAGGAUUGAGCAUCA
B7: chr8:133025090:133025091:+_ENSG00000132294_ENST00000254624|hu_mus|motif|central (ssRNA)
RNA: GGGAGUUCUACAGUCCGACGAUCGAAAAGACUAACUGCAAUGGUUUUCCUUUGCAUGCAAAGCAUGCCUUUUAAAAUCACGGAGAAACACAACAUUUUGUACAGCAAAGCUUGUGUUCUGCAUGAAUGCAAGUGAAUAUAUAUCAACAGAGGAUUGAGCAUCA
B8: chr2:157388187:157388188:+_ENSMUSG00000067786_ENSMUST00000109526|mus_hu|motif|central (ssRNA)
RNA: GGGAGUUCUACAGUCCGACGAUCUUUUGUAGAGGUGGUCCCUGUCCUCCAGGAGCUUACAAUCUAGCUGGGGAGACACAACGGAUGCACACUUAAACAAUCAGUACAAUUAGCGAUUACCACAAUAUUGACCACAACUGCAUGCAACAGAGGAUUGAGCAUCA
B9: chr17:45747064:45747065:+_ENSG00000108424_ENST00000290158|hu_hu|hu_hu_hu_mus_True|58_58 (ssRNA)
RNA: GGGAGUUCUACAGUCCGACGAUCGCCCACAGUCCACGCUGUUGUGUCUCGAACAACUACACUGGGGUCUUUCAUUAAUUCUAUUAGGGUGGGCAUAGCCUGUAUGACUAAUGGUUUCAGUUGAUUAGGCUCUGGUCCUUCCAACAACAGAGGAUUGAGCAUCA
B10: 53237077_53237197_787_CDS_ENSG00000162378_ENST00000294353|human|control|control (ssRNA)
RNA: GGGAGUUCUACAGUCCGACGAUCCCGAACUACAUCCAGUAUCUGGGUAGUUGUCAUUUUUAAACAUUUCAAGUGGUGCAUGGUUAGAGACUUGAGUCGGUCUUUGCAGGCCAGUAGAGCAGUGAUGUCUGUGAUUGAGGUGUUCAACAGAGGAUUGAGCAUCA
B11: chr1:87185206:87185207:+_ENSG00000097033_ENST00000482504|hu_mus|motif|central (ssRNA)
RNA: GGGAGUUCUACAGUCCGACGAUCCGGGUUGUUUAUACGACUUGGUGCUUUUCUAUCCAGUUUCUCAUAAACAAAUUCUUCGGUCCUGGCAUUUGGAUUUGGCUGCAACAGCACUUCGGUCUGCUUCAUUAUCUUUUCUGUCCACAACAGAGGAUUGAGCAUCA
B12: chr18:24791317:24791318:+_ENSMUSG00000024271_ENSMUST00000025120|mus_mus|FALSE|FALSE (ssRNA)
RNA: GGGAGUUCUACAGUCCGACGAUCACUUCCAGUGAAGAAGUACUUGUUAUCAGGACUCCAGUCACAAGACCAAAUGAUUCUACUAUGCACAGAAGUAAUUUUGUUGGUGAAUGCAAAGAGACUAAAAAAUGGAUCAAACUCCGACAACAGAGGAUUGAGCAUCA
B13: chr7:54825262:54825263:-_ENSG00000132432_ENST00000352861|hu_hu|hu_hu_hu_mus_False|18_68 (ssRNA)
RNA: GGGAGUUCUACAGUCCGACGAUCCUGCCGGCUGGGCUCCACAAACUGCAUUACCUGAUCCAUGUUUUACCCAACCGGGAUUGAGAGCGUAGAGACACGUAGCUCAGGAGAGAACCGGAUGGAGGCCAACCGGAAGCUGGCAACCAACAGAGGAUUGAGCAUCA
B14: chr4:17845017:17845018:+_ENSG00000109805_ENST00000514176|hu_mus|hu_hu_hu_mus_False|28_38 (ssRNA)
RNA: GGGAGUUCUACAGUCCGACGAUCGCUCUCUUAACUUGUAUCUUCAUUAAGGAACUCUGCAAGGUUAAGUUUACUUUUCUGUAGCGCAGCUGUUUUGCUCGUCUUGGUAGUCUCAUCCUUCAUUUCUGAUGGUGGUUCAUGAUCCAACAGAGGAUUGAGCAUCA

This is one part of the list.

The target of this assay is T1, UNK ZnF1-3. The assay is described as follows: nsRBNS (natural sequence RNA bind-n-seq); RBNS binding buffer (assumed for nsRBNS): 25 mM Tris pH 7.5, 150 mM KCl, 3 mM MgCl2, 0.01% Triton X-100, 500 ug/ml BSA, 20 U/ml SUPERase-In, 4 C; UNK is unkempt and MSI1 is Musashi-1; names of the RNAs are library labels; protein concentration not given here; high values mean tight binding.
B1 returned a binding signal of 1.69 enrichment R.

On to B2, for which the binding signal amounted to 0.746 enrichment R.

Molecule B3 returned a binding signal of 2.17 enrichment R.

As for B4, the binding signal is 1.63 enrichment R.

The molecule B5 had a binding signal of 0.522 enrichment R.

B6: the binding signal is 0.605 enrichment R.

As to B7, the binding signal was 0.586 enrichment R.

B8 registered a binding signal of 1.43 enrichment R.

In turn, B9 came in with a binding signal of 0.57 enrichment R.

On to B10, for which the binding signal was found to be 0.911 enrichment R.

In turn, B11 registered a binding signal of 0.329 enrichment R.

Take B12: the binding signal worked out at 1.22 enrichment R.

On to B13, for which the binding signal was 1 enrichment R.

B14 returned a binding signal of 0.371 enrichment R.

The values are drawn from paper PMC12136788.
